Measurements reported in publication PMC12222028.
These are yes or no findings as the source states them, for the method shown. For some assays here: Binding seen in cells or lysates may run through a third protein. Some entries that bind do so weakly or less than the wild type. For some assays here: Sequences can lack the tags named with a protein.

Chains of the proteins cited; added tags and fusions are not shown. Residues count along the entry.
UniProt P51793: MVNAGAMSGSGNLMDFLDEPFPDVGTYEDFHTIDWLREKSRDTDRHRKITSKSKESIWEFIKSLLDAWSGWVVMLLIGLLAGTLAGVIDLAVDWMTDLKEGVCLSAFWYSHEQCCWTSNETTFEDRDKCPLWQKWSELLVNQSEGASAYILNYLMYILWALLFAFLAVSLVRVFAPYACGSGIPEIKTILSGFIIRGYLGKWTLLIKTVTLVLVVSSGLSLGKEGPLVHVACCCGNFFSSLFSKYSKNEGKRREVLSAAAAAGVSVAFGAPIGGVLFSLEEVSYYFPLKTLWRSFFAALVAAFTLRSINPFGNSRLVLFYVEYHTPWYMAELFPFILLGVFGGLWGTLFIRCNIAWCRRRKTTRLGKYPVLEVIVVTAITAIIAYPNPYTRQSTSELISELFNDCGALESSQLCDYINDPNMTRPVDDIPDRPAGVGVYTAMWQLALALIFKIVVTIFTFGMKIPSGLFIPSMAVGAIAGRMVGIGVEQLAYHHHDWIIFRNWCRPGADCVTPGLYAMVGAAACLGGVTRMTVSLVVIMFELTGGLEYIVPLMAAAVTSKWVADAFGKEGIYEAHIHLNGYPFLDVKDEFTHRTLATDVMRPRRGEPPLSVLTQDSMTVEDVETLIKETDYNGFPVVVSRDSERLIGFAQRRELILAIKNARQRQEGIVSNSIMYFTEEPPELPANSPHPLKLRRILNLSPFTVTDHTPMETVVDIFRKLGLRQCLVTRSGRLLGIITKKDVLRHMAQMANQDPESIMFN
UniProt Q9P0T7, residues 21-183: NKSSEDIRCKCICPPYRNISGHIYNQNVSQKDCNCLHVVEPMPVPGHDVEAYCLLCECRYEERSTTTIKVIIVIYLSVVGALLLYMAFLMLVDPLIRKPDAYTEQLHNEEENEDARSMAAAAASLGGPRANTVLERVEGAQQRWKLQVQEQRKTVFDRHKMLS

Experiments:
[1] = target: T1, CLCN3 (human (endogenous in HEK293)) (UniProt P51790); assay: cross-linking; XL-MS: intact early endosomes (Endo-IP, HEK293 cells expressing Flag-EEA1, eluted with 3xFlag peptide, no detergent) cross-linked with 1 mM DSSO in KPBS at room temperature for 40 min; XlinkX, 5% FDR
T1 sequence: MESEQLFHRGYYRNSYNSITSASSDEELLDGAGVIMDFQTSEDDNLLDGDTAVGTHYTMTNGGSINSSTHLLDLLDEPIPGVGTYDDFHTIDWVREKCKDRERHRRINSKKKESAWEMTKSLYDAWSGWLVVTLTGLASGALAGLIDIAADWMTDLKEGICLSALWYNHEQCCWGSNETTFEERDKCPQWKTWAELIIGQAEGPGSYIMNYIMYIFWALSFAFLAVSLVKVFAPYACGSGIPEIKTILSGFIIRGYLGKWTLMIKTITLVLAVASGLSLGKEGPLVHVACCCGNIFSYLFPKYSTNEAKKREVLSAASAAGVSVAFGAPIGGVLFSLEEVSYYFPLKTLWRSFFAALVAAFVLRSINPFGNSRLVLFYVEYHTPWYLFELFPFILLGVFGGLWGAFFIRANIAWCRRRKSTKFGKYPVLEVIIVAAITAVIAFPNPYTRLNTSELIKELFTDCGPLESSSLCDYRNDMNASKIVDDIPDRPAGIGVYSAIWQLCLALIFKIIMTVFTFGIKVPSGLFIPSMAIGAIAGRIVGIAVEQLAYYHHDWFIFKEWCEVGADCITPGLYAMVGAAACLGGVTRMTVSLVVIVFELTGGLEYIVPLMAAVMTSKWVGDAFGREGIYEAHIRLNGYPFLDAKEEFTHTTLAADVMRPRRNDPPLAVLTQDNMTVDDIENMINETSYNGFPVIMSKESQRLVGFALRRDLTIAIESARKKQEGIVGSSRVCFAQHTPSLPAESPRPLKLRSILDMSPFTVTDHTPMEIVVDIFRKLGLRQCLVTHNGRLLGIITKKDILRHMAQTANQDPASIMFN

[2] = target: T2, CLCN5 (human (endogenous in HEK293)) (UniProt P51795); assay: native gel or EMSA; BN-MS: 0.5% DDM extract of purified early endosomes (HEK293) on a 4-16% NativePAGE gel, 48 slices, DIA mass spectrometry; co-fractionation profiles
T2 sequence: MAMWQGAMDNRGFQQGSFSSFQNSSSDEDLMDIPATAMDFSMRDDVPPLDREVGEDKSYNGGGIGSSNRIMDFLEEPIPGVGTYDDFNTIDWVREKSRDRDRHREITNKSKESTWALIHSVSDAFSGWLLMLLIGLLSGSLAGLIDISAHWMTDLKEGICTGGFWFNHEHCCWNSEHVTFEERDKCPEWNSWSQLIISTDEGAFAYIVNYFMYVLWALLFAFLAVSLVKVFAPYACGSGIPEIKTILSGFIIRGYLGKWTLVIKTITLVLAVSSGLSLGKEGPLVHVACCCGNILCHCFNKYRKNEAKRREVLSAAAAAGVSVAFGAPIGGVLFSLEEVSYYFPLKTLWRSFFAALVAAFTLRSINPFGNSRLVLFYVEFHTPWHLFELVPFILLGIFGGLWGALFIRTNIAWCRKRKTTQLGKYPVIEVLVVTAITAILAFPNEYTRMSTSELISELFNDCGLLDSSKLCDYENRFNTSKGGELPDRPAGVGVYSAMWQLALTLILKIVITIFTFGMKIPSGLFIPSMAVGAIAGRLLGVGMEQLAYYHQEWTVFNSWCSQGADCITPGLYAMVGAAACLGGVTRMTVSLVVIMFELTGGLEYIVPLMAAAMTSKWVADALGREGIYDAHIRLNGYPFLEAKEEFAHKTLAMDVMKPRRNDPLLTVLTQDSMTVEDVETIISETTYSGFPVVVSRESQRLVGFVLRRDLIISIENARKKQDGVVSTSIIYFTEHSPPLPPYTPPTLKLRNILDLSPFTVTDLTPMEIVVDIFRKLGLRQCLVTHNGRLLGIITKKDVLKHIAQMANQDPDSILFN

[3] = target: CLCN4 (human (endogenous in HEK293)) (UniProt P51793); assay: as above
[4] = target: T1, CLCN3 (human (endogenous in HEK293)); assay: as above
[5] = target: T3, Flag–CLCN3 (human) (UniProt P51790); assay: co-IP; HEK293 cells transfected with tagged proteins; 0.5% DDM, 25 mM HEPES pH 7.4, 150 mM NaCl; anti-HA or anti-Flag magnetic beads; immunoblot
T3 sequence: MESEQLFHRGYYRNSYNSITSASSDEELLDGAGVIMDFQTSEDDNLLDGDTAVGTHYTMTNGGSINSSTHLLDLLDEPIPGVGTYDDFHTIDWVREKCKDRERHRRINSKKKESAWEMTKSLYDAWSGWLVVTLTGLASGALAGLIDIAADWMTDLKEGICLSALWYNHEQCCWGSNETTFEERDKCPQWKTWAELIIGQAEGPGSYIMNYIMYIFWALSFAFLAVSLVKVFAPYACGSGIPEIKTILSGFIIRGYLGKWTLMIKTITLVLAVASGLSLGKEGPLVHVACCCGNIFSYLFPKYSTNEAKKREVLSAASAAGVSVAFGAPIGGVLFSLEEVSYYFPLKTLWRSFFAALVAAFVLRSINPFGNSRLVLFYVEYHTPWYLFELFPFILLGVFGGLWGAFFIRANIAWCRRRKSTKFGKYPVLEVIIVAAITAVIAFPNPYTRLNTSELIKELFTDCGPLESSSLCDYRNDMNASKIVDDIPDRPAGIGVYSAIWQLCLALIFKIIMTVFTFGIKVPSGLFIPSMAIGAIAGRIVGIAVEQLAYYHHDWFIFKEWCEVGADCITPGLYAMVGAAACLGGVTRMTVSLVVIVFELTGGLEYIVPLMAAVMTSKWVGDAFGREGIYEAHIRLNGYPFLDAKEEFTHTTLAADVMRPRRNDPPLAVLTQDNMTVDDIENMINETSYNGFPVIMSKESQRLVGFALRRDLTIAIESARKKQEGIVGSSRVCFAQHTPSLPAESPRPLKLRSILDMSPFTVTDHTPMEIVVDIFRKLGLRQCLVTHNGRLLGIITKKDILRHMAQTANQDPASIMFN

[6] = target: T4, Flag–CLCN5 (human) (UniProt P51795); assay: as above
T4 sequence: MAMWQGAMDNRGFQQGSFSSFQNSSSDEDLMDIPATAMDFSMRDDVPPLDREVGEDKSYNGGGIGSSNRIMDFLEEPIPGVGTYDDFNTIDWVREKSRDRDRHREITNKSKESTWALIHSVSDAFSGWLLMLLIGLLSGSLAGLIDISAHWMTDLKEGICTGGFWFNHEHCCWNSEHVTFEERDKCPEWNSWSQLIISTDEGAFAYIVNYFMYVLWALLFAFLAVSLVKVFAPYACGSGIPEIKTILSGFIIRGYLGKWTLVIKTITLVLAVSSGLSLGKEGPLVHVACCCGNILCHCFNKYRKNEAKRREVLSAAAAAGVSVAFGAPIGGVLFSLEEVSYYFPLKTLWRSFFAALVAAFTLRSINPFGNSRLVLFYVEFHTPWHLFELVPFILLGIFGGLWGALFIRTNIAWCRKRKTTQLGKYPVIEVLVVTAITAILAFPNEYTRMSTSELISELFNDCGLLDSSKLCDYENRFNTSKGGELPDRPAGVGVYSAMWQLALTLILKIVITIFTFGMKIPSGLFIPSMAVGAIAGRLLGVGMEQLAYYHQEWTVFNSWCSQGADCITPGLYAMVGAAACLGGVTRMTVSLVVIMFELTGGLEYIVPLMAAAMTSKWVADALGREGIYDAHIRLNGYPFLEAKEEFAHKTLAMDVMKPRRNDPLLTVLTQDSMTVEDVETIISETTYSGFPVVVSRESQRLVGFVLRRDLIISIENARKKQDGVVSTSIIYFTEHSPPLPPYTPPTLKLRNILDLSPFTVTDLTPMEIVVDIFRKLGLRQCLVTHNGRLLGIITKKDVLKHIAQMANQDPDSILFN

[7] = target: T5, HA-tagged TMEM9B (human) (UniProt Q9NQ34); assay: as above
T5 sequence: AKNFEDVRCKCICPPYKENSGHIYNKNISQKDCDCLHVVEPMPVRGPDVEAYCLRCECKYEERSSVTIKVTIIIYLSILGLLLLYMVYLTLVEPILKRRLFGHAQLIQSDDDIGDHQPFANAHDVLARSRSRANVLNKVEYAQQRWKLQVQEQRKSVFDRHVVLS

[8] = target: HA-tagged TMEM9 (human) (UniProt Q9P0T7); assay: as above

B1: TMEM9B (protein, UniProt Q9NQ34 34-198)
chain: AKNFEDVRCKCICPPYKENSGHIYNKNISQKDCDCLHVVEPMPVRGPDVEAYCLRCECKYEERSSVTIKVTIIIYLSILGLLLLYMVYLTLVEPILKRRLFGHAQLIQSDDDIGDHQPFANAHDVLARSRSRANVLNKVEYAQQRWKLQVQEQRKSVFDRHVVLS
[1]
  binding: binds
[2]
  binding: binds
[3]
  binding: binds
[4]
  binding: binds

B2: HA-tagged TMEM9B (protein, UniProt Q9NQ34 34-198)
chain: AKNFEDVRCKCICPPYKENSGHIYNKNISQKDCDCLHVVEPMPVRGPDVEAYCLRCECKYEERSSVTIKVTIIIYLSILGLLLLYMVYLTLVEPILKRRLFGHAQLIQSDDDIGDHQPFANAHDVLARSRSRANVLNKVEYAQQRWKLQVQEQRKSVFDRHVVLS
[5]
  binding: binds
[6]
  binding: binds

B3: Flag–CLCN5 (protein, UniProt P51795 1-816)
chain: MAMWQGAMDNRGFQQGSFSSFQNSSSDEDLMDIPATAMDFSMRDDVPPLDREVGEDKSYNGGGIGSSNRIMDFLEEPIPGVGTYDDFNTIDWVREKSRDRDRHREITNKSKESTWALIHSVSDAFSGWLLMLLIGLLSGSLAGLIDISAHWMTDLKEGICTGGFWFNHEHCCWNSEHVTFEERDKCPEWNSWSQLIISTDEGAFAYIVNYFMYVLWALLFAFLAVSLVKVFAPYACGSGIPEIKTILSGFIIRGYLGKWTLVIKTITLVLAVSSGLSLGKEGPLVHVACCCGNILCHCFNKYRKNEAKRREVLSAAAAAGVSVAFGAPIGGVLFSLEEVSYYFPLKTLWRSFFAALVAAFTLRSINPFGNSRLVLFYVEFHTPWHLFELVPFILLGIFGGLWGALFIRTNIAWCRKRKTTQLGKYPVIEVLVVTAITAILAFPNEYTRMSTSELISELFNDCGLLDSSKLCDYENRFNTSKGGELPDRPAGVGVYSAMWQLALTLILKIVITIFTFGMKIPSGLFIPSMAVGAIAGRLLGVGMEQLAYYHQEWTVFNSWCSQGADCITPGLYAMVGAAACLGGVTRMTVSLVVIMFELTGGLEYIVPLMAAAMTSKWVADALGREGIYDAHIRLNGYPFLEAKEEFAHKTLAMDVMKPRRNDPLLTVLTQDSMTVEDVETIISETTYSGFPVVVSRESQRLVGFVLRRDLIISIENARKKQDGVVSTSIIYFTEHSPPLPPYTPPTLKLRNILDLSPFTVTDLTPMEIVVDIFRKLGLRQCLVTHNGRLLGIITKKDVLKHIAQMANQDPDSILFN
[7]
  binding: binds
[8]
  binding: binds
